About 6,900 (2%) of roughly 340,000 compounds were called active. Cut-off read from the data, not from the text of the source: active = inhibition above about 30%; inactive = below that, where a call was filed. The list shows a part of the results, in another mix than the full data. Entries without a call were filed so in the source.

The assay has as its target D(2) dopamine receptor (Homo sapiens) (UniProt P14416). Description: HTS Assay for Allosteric Antagonists of the Human D2 Dopamine Receptor: Primary Screen for Antagonists. Note: 0% is about no effect. The conditions noted are these: HEK293 TREx D2 cells, calcium flux, dopamine EC80; at 10 µM; stronger effect = higher value. Summed up: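 Cells plated overnight at 30 C with tetracycline; no-wash calcium dye, 30–90 min RT; 10 s baseline; compound pinned; 180 s read; EC80 dopamine added; another 180 s read.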
UniProt P14416, sequence (P14416 whole entry, looked up): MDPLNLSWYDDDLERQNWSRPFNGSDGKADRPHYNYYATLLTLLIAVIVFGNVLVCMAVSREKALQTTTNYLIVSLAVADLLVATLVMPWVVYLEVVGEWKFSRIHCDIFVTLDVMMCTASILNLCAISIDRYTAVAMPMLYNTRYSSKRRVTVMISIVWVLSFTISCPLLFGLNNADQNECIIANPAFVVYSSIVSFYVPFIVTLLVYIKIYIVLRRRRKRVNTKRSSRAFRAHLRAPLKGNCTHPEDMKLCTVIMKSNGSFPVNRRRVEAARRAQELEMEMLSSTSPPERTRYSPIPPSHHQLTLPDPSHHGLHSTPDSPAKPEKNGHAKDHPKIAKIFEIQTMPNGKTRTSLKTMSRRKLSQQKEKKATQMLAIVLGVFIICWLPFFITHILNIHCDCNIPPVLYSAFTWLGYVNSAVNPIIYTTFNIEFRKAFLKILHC
With `Cc1ccc(OCC(=O)OCc2cc(=O)n3nc(C4CCCCC4)sc3n2)cc1`, the inhibition (usually the relative decrease from the control value, in per cent) is -11.8%.
The same measure for `O=C(c1[nH]nc2c1CCc1ccccc1-2)N1CCN(Cc2ccc3c(c2)OCO3)CC1`: active: 70.5%; for `COc1ccc(N(C(=O)c2ccccc2C)S(=O)(=O)c2ccc3c(c2)n(C)c(=O)n3C)cc1`: -5.75%; for `CCOc1ccccc1NS(=O)(=O)c1c(C(=O)OC)sc2cccc(F)c12`: 14.5%.
Next, `COc1ccc(OC)c(CCNC(=O)c2sc3nc4n(c(=O)c3c2C)CCCC4)c1`: 17.1%; `CSCCC(NC(=O)C1CCCCC1)C(=O)Nc1ccc(F)c(Cl)c1` (stereo not given): -12.7%; `CCNc1c(NC(=O)c2ccccc2OCC)c(=O)oc2ccccc12`: 4.32%.
For `COc1ccc(CCC(=O)NCCc2csc(-c3cccc(F)c3)n2)cc1`, the inhibition is -2.11%.
In the case of `Cc1cc(CN2CCC(n3nccc3NC(=O)c3ccccc3Cl)CC2)cc(C)c1O`, the inhibition was active: 55.4%.
As to `COc1ccc(NC(=O)c2oc3ccc4c(c3c2C)C(=O)CC(C)(C)O4)cc1OC`, the inhibition was -11.3%.
Take `COc1cc2c(cc1NC(=O)C(C)Oc1ccc(Cl)cc1Cl)oc1ccccc12` (stereo not given): the inhibition is -2.93%.
For the compound `CCc1ccc(OCC2c3cc(OC)c(OC)cc3CCN2C(=O)Cc2ccc(OC)c(OC)c2)cc1` (stereo not given), the inhibition turned out to be 0.824%.
Next, `Cc1ccc(CCNC(=O)CCCn2nc(C)c3c(C)n(-c4ccc(C)cc4)nc3c2=O)cc1`: -10.7%; `COc1cc(-c2nnc(SCC(=O)N(C)C3CCCCC3)o2)cc(OC)c1OC`: 0.282%; `COc1ccc(NC(=O)CCCN2C(=O)C(c3ccccc3)Oc3cccnc32)cc1OC` (stereo not given): 7.83%.
With `COc1ccc(-c2noc(CSc3nnc(-c4ccncc4)n3-c3cccc(C)c3)n2)cc1OC`, the inhibition is -3.09%.
Regarding `Cc1ccc(-c2cc(-c3coc4ccccc4c3=O)c3c(n2)-c2cc(Cl)ccc2OC3)cc1`, the inhibition came out at 2.2%.
On to `COc1ccccc1NC(=O)Cn1c(SCC(=O)NCc2ccccc2)nc2ccccc21`, for which the inhibition worked out at 14.2%.
As to `CCOc1ccc(C(=O)C(CCC(CN(C)C)C(=O)c2ccc(OCC)cc2)CN(C)C)cc1` (stereo not given), the inhibition is active: 37%.
As to `CC(=O)Nc1ccc(-c2nnc3n(CC(C)C)c(=O)c4ccccc4n23)cc1`, the inhibition turned out to be 9.83%.
Next, `Cc1cc(C)c2c(n1)SCC(=O)N2CC(=O)Nc1c(C)cccc1C`: -1.8%.
Next, `Cc1cc(C)cc(NC(=O)Nc2c[nH]c(=O)[nH]c2=O)c1`: -13.5%; `CC(=O)c1c(C)[nH]c(C(=O)Nc2nc(C)cs2)c1C`: active: 32.9%.
In the case of `O=C(NC1(C(F)(F)F)N=C(c2ccccc2)N(C2CCCCC2)C1=O)c1ccccc1F` (stereo not given), the inhibition is -14.6%.
In the case of `COc1ccc(NS(=O)(=O)c2cc3c4c(c2)CC(=O)N4CCC3)cc1Cl`, the inhibition came out at 1.94%.
The same measure for `CNC(=S)N1CCC(c2nc3ccccc3s2)CC1`: active: 68.3%.
For `COc1ccc(OC)c(CCNc2ncnc3onc(C)c23)c1`, the inhibition was 1.1%.
Next, `CCn1c(CN2CCC(C)CC2)nc2cc(NC(=O)c3cccc([N+](=O)[O-])c3)ccc21`: 7.13%; `Nc1nonc1-n1nnc(C(=O)N/N=C/c2ccc3c(c2)OCO3)c1-c1ccccc1`: active: 38.6%; `Cc1ccc(CCNC(=O)c2ccc(CNS(=O)(=O)c3ccc(F)cc3)cc2)cc1`: -3.65%.
Next, `CCOC(=O)C1=C(CS(=O)(=O)c2ccc(F)c(C)c2)NC(=O)NC1c1ccc(F)c(F)c1` (stereo not given): -13.5%; `CC(=O)N1CCc2c(sc(NC(=O)CSc3ccc(C)cc3)c2-c2nc3ccccc3s2)C1`: 9.04%; `Cc1cccc(N2CCN(C(=O)c3cccc(-n4c(C)nc5cccnc54)c3)CC2C)c1` (stereo not given): -5.41%.
`COC(=O)C1=C(C)NC2=C(C(=O)c3ccccc32)C1c1ccc(-c2ccc(C(=O)O)cc2)o1` (stereo not given): the inhibition was active: 54.8%.
The same measure for `Cc1c(C(=O)Nc2ccccc2Cl)oc2ccc(S(=O)(=O)N3CCCCCC3)cc12`: -16.9%.
Next, `COC(=O)c1c(NC(=O)CCCOc2ccccc2C)sc2c1CCC2`: 3.21%; `COc1ccc(CNS(=O)(=O)c2ccc3c(c2)C(C)(C)C(=O)N3C)cc1OC`: -3.42%.
Next, `Cc1ccc(C(C)C)c(OCC(=O)Nc2ccc(-c3nc4ncccc4o3)cc2C)c1`: 15.8%.
Turning to `Cc1ccc(C)c(NS(=O)(=O)c2ccc3c(c2)CCCN3C(=O)C2CCC2)c1`, the inhibition turned out to be 18.5%.
Next, `COc1ccc(C(C(=O)NCc2ccccc2)N(C(=O)Cn2nnc3ccccc32)c2ccc(OC)cc2)cc1` (stereo not given): -14.3%; `O=C(c1ccc(NS(=O)(=O)c2ccc(F)cc2)cc1)N1CCC1`: active: 41.8%; `Cc1ccc(Cn2c(=N)c(C(=O)NCc3ccco3)cc3c(=O)n4ccccc4nc32)cc1`: active: 82.9%.
Consider `O=C(Cn1c(=O)c2sccc2n(CC(=O)Nc2ccc(Cl)cc2Cl)c1=O)NCCc1ccccc1`, for which the inhibition was -13.1%.
In the case of `Cc1ccc(NC(=O)N2CCc3c([nH]c4ccccc34)C2c2ccccc2F)c(Cl)c1` (stereo not given), the inhibition was found to be 1.08%.
For `CCCN1Cc2cccc(C(=O)Nc3ccc(OC)cc3OC)c2C1=O`, the inhibition is -1.34%.
Next, `COc1cccc(C(=O)c2cn(CC(=O)Nc3cccc(Cl)c3C)c3nc(C)ccc3c2=O)c1`: -4.43%; `COCCN1C(=O)c2oc3ccc(C)cc3c(=O)c2C1c1ccc(C(=O)OC)cc1` (stereo not given): -17.8%; `CSc1ncc(C(=O)NCc2cccc(Br)c2)c(-c2ccccc2)n1`: -2.48%.
Next, `COc1ccc(NC(=O)c2ccc(-n3cncn3)c([N+](=O)[O-])c2)cc1OC`: active: 35.3%; `Cc1cccc(C)c1OCc1cc(=O)n2ccsc2n1`: 1.3%; `COc1cc(OC)c(NC(=O)C(C)n2nc(-c3ccc(C)c(C)c3)ccc2=O)cc1Cl` (stereo not given): -1.13%.
The same measure for `COc1cccc(NC(=O)CSc2nnc(NC(=O)NC3CCCCC3)s2)c1`: 22.4%; for `CN(C)c1ccc(-c2nc3ccccn3c2Nc2ccc3c(c2)OCCO3)cc1`: 8.3%.
For the compound `Cc1cccc(N2CCN(C(=O)c3c4c(nc5ccccc35)C(=O)N(C3CCCCC3)C4)CC2)c1C`, the inhibition was -6.02%.
The same measure for `COc1ccc(OC)c(NC(=O)c2cc3c(=O)n4cccc(C)c4nc3n2C)c1`: 7.71%.
Next, `Cc1ccc(CC(=O)NCc2nc(-c3cccc(C)c3)no2)cc1`: 17.6%.
For `Cc1ccc(N(C)C(=O)c2noc3c2CCCCC3)cc1C`, the inhibition was 10.2%.
Next, `COc1cccc(NS(=O)(=O)c2ccc3[nH]cc(C(=O)N(C)Cc4ccco4)c(=O)c3c2)c1`: 22.4%; `Cc1nnc(N2CCC(C(=O)NCc3cccc(Cl)c3)CC2)c2nn(-c3ccccc3)c(C)c12`: 11%.
The same measure for `CCc1ccccc1N1CC(c2nc3ccccc3n2CCC2CCCCC2)CC1=O` (stereo not given): -3.19%.
The same measure for `Cn1c(=O)c2c(c3ccccc31)OC(=O)CC2c1ccccc1` (stereo not given): -5.03%; for `COc1ccc(NC(=O)c2ccc3c(=O)n4nc(Nc5ccccc5C)sc4nc3c2)cc1`: -4.61%.
With `O=c1c2ccccc2n2c(-c3cccc(F)c3)nnc2n1Cc1ccccc1`, the inhibition amounted to 24.4%.
The same measure for `CC(C)c1ccc(NC(=O)CSC2=Nc3ccccc3C3=NC(CC(=O)NCc4ccco4)C(=O)N23)cc1` (stereo not given): 3.74%; for `CCOC(=O)N1CCN(C(=O)c2cnn(-c3cccc(C)c3)c2-n2cccc2)CC1`: -5.08%; for `Cc1ccc(-n2nc(C)c(C(=O)NCCCN3CCN(c4ccccc4F)CC3)c2-n2cccc2)cc1`: 1.21%.
The same measure for `CCOC(=O)c1cnc2c(C)cc(C)cc2c1Nc1ccc(N2CCOCC2)cc1`: 9.44%.
As to `COc1ccc(C(=O)Nc2ccc3c(c2)N(C)C(=O)c2ccccc2S3)cc1OC`, the inhibition is 18.3%.
Next, `COc1ccc(Cn2c(C3CCCCC3)nc3c(c(=O)c4ccccc4n3C)c2=O)cc1`: active: 41.9%; `Cc1oc(-c2ccc(Cl)cc2)nc1CN1CCCC(C(=O)NCc2ccc(Cl)cc2)C1` (stereo not given): -4.45%; `CCCOc1ccccc1C(=O)Nc1nc2c(s1)CCCC2`: -8.54%.
Next, `CN(Cc1ccccc1)C(=O)c1ccc2c(c1)N(Cc1ccc(Cl)cc1)C(=O)c1ccccc1S2=O` (stereo not given): 6.16%.
As for `CCOC(=O)C1CCN(C(=O)Cn2nc(CC)n3c(cc4occc43)c2=O)CC1`, the inhibition amounted to 8.8%.
Next, `Cc1ccc(NC(c2cccc(Cl)c2)c2nnc(-c3ccccc3)o2)cc1F` (stereo not given): 2.99%; `Cc1cc(Cl)ccc1NS(=O)(=O)c1cc2[nH]c(=O)c(=O)[nH]c2cc1C`: 14.2%.
Consider `CCCCc1nn2c(C)c(-c3ccc(OCC)cc3)nc2s1`, for which the inhibition was found to be 24.6%.
The same measure for `COc1ccc(CN2C(=O)c3ccccc3C2C(=O)NC2CCCCCC2)c(OC)c1` (stereo not given): 14.3%.
Consider `O=C(Cn1ncc2c3ccccc3n(Cc3cccc(Cl)c3)c2c1=O)N1CCCCC1`, for which the inhibition was -3.04%.
Next, `CCOC(=O)CNC(=O)CSc1nnc(COc2ccc(Cl)cc2)n1CC`: active: 32.9%.
`COc1ccccc1NC(=O)C1=C(C)Nc2nc(SCc3ccccc3Cl)nn2C1c1cccnc1` (stereo not given): the inhibition is -4.08%.
Regarding `Cc1ccc(NC(=O)CN2CCN(C3CCCCC3)C(=O)C2=O)cc1C`, the inhibition is 13%.
Turning to `CCCN1C(C(=O)c2ccccc2)=C(OC(=O)C(C)(C)C)c2ccccc2S1(=O)=O`, the inhibition was -1.09%.
Turning to `Cc1ccc2c(c1)sc1nc(=O)n(-c3cccc(Cl)c3)c(=O)n12`, the inhibition turned out to be 8.18%.
Next, `Nc1cc(C(F)(F)F)ccc1-n1cccc1`: active: 39.2%; `Cc1ccc(-n2ncc(C(=O)N3CCN(c4cccc(C)c4C)CC3)c2C2CCNCC2)c(C)c1`: 2.87%.
For `CCOC(=O)c1cc(-c2ccc(F)cc2)n(CCC(=O)NCc2ccc(C)cc2)c1C`, the inhibition is 20.5%.
With `COc1ccc(Br)cc1CC1C(=O)Nc2ccccc21` (stereo not given), the inhibition is -22.2%.
Next, `CCC(=O)N1CCc2cc(S(=O)(=O)NCCC(=O)Nc3cccc(SC)c3)ccc21`: -12.8%; `O=C(COc1ccccc1F)Nc1ccc2nc(SCc3ccccc3)sc2c1`: 7.26%; `COc1ccc2oc(=O)c(-c3nc4ccc(C)cc4[nH]3)cc2c1`: 0.581%.
For the compound `O=C(CCCNS(=O)(=O)c1cccc2nsnc12)NCCN1CCN(c2ccccc2F)CC1`, the inhibition was active: 78.8%.
The same measure for `O=C(/C=C/c1cccc(Br)c1)NC1CCN(Cc2ccccc2)CC1`: active: 71.8%.
In the case of `COc1cc2nc(NC(=O)c3ccc(S(=O)(=O)N4CCCC4)cc3)sc2cc1OC`, the inhibition came out at 16.6%.
Next, `O=C(COCc1cc(-c2ccc3c(c2)OCO3)on1)N1CCN(c2cccc(C(F)(F)F)c2)CC1`: -11.4%; `CCCS(=O)(=O)c1nc(S(=O)(=O)c2ccc(C)cc2)c(NC(C)c2ccccc2)s1` (stereo not given): -7.61%.

The record behind these values is PubChem BioAssay AID485344 (National Center for Advancing Translational Sciences (NCATS), 2010).
